Source: publication PMC4336329 (PLoS ONE, 2015)
In all, about 310,000 compounds went through this assay and about 2,200 (0.71%) showed an effect of 50% or more. The effect is printed as a negative number. Some of the results follow.

These molecules were tested against human ether-à-go-go-related gene (hERG) potassium channel (human, UniProt Q12809) (assay: primary screen, population patch clamp on CHO cells stably expressing hERG).
Sequence of human ether-à-go-go-related gene (hERG) potassium channel (Q12809 whole entry, looked up): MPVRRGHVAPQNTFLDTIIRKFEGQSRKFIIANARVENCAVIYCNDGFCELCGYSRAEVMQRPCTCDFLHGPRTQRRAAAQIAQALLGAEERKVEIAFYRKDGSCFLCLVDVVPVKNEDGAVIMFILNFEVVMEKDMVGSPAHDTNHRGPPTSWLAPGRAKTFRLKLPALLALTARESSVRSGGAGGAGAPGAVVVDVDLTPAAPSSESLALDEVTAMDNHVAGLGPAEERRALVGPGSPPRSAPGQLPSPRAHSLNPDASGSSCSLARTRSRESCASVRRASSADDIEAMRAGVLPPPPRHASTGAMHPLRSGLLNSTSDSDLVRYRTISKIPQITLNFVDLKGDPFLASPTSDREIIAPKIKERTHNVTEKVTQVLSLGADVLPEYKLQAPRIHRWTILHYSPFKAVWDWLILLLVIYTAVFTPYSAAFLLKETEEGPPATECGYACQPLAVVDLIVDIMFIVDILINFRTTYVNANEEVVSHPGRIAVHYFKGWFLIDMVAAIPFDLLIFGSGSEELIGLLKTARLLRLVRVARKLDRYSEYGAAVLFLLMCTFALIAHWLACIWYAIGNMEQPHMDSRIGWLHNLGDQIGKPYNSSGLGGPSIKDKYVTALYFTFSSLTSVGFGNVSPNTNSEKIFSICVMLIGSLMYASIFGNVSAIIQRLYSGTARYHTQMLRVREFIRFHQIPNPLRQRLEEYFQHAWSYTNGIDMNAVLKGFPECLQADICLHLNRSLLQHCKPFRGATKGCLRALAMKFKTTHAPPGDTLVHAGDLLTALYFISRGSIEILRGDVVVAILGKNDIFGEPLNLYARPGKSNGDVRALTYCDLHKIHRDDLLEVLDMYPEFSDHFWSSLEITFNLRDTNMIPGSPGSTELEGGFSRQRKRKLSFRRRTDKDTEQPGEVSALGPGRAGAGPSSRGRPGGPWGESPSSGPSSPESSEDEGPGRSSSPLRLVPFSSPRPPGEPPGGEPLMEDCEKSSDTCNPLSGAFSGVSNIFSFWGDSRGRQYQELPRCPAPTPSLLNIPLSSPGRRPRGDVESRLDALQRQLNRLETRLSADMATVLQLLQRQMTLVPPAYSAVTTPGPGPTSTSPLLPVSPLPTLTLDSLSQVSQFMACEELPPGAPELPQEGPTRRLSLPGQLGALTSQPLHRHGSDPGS

Row | SMILES | hERG current change (%, negative = inhibition) at 1uM
1 | CC(C)c1ccc(C2(C)NC(=O)N(CC(=O)NC3(C#N)CCCC3)C2=O)cc1 (stereo not shown) | 3.96%
2 | Cc1ccccc1-n1nc2c(c1NC(=O)c1ccc3c(c1)OCO3)CS(=O)(=O)C2 | 3.55%
3 | COc1ccc(S(=O)(=O)N(Cc2ccccc2)c2ccccc2C(=O)O)cc1 | 25.4%
4 | COc1cc(Br)cc(/C=N/N(CCO)C2=NS(=O)(=O)c3ccccc32)c1OC | 5.63%
5 | O=C(C/C=N\OCc1ccc(Cl)cc1Cl)Nc1ccccc1 | 5.24%
6 | Cn1nnc(NC(=O)c2cccc(F)c2)n1 | 15.3%
7 | CS(=O)(=O)CCC(C(=O)Nc1ccc2c(c1)OCO2)N1Cc2ccccc2C1=O (stereo not shown) | 16.1%
8 | CN(C(=O)c1cccc(C#N)c1)c1nnc(C2CCOC2)s1 (stereo not shown) | 2.57%
9 | Cc1ccc(CN(C)c2nc(-c3cccnc3)nc3ccccc23)o1 | 10.3%
10 | COCCN1Cc2cccc(C(=O)Nc3cccnc3)c2C1=O | 3.55%
11 | COc1ccc(-n2c(-c3ccc(Br)cc3)c[n+]3c2SC(C)C3)cc1.[Br-] (stereo not shown) | -26%
12 | C=CCC1(CC=C)CCCN1C(=O)CC1C(=O)NCCN1Cc1cccc(OC)c1OC (stereo not shown) | 9.3%
13 | CCn1ncc(Br)c1C(=O)N(C)C12CC3CC(CC(C3)C1)C2 | 9.85%
14 | CCOc1ccc(-c2cc(C)[n+](CCN3CCOCC3)c(-c3ccc(OCC)cc3)c2)cc1.[O-][Cl+3]([O-])([O-])[O-] | -3.34%
15 | CCn1c(COc2ccccc2C)nnc1SCC(=O)N1CCC(C)CC1 | 1.03%
16 | Cc1cc(C(=O)NNC(=O)c2cccc(Cl)c2)no1 | 6.46%
17 | Cc1ccc(CCNC(=O)CNS(=O)(=O)c2ccc3nc(C)sc3c2)cc1 | 6.59%
18 | O=c1c(O[C@H]2O[C@@H](CO)[C@H](O)[C@@H](O)[C@@H]2O)c(-c2ccc(O)cc2)oc2cc(O)cc(O)c12 | 14.1%
19 | CCNC(=O)c1c(NC(=O)C2COc3ccccc3O2)sc2c1CCCC2 (stereo not shown) | 12.3%
20 | CCN(CC)C(=O)CSc1nc2sc3c(c2c(=O)n1CCCOC)CCC3 | 11.8%
21 | CCOC(=O)c1nn(-c2ccccc2C)c(=O)c(C#N)c1C | 19.2%
22 | O=C(O)c1sccc1OCc1ccccc1 | 7.68%

Row | SMILES | hERG current change (%, negative = inhibition) at 1uM
23 | Oc1ccc(Cl)c(Cl)c1 | 9.77%
24 | C/C(=N/NC(=O)c1ccc(C(C)(C)C)cc1)c1cccnc1 | 7.59%
25 | CCCN(CCC)C(=O)Cn1c(=O)n(CCCCC(=O)NC2CCCC2)c(=O)c2ccccc21 | 7.05%
26 | Cc1cccnc1NC(=S)Nc1ccc(F)cc1F | 15.2%
27 | Cc1cc(C)nc(SCc2c(F)cccc2Cl)n1 | 9.77%
28 | Cc1sc2ncn(CC(=O)NCC(=O)N3CCN(c4ccc(F)cc4)CC3)c(=O)c2c1C | 1.4%
29 | C=CCOc1ccc(/C(O)=C2/C(=O)C(=O)N(CCCn3ccnc3)C2c2cccs2)cc1 (stereo not shown) | 19.1%
30 | COc1ccccc1NC(=O)C1CC(O)CN1C(=O)Oc1ccccc1 (stereo not shown) | 7.17%
31 | Cc1cccc(NC(=O)CCN2C(=O)C3C4C=CC(C4)C3C2=O)c1 (stereo not shown) | 15.3%
32 | O=C(Cn1[nH]c(=O)c2ccccc2c1=O)NCC1COc2ccccc2O1 (stereo not shown) | -21%
33 | CCOC(=O)C(NCc1ccco1)(NC(=O)c1ccccc1)C(F)(F)F (stereo not shown) | 12.4%
34 | O=C(CCNC(=O)N1CC(=O)Nc2ccccc21)NCc1ccc(F)cc1 | 24.3%
35 | CCN(CC)S(=O)(=O)c1cccc(C(=O)NC(C)C(c2cccs2)N2CCCC2)c1 (stereo not shown) | 9.96%
36 | CCc1ccc(NC(=S)NNC(=O)c2ccccc2OC(F)F)cc1 | 13%
37 | COc1cccc(C(=O)N2CCC(n3nccc3NC(=O)CCOc3ccccc3)CC2)c1 | 41.6%
38 | CN1C(=O)[C@H]2[C@@H](C3CC3)N3C(=O)CN(Cc4ccccc4)C(=O)[C@@]3(C)[C@H]2C1=O | 4.32%
39 | O=S(=O)(NC1CCCC1)c1ccc(S(=O)(=O)N2CCc3ccccc32)cc1 | 3.05%
40 | O=C(O)C(=O)O.OCCNCCOc1ccccc1-c1ccccc1 | 5.24%
41 | CN(C)c1ccnc(NCc2ccccc2)c1C#N | -3.33%
42 | Cl.O=C(CN1CCCCC1)c1ccc(F)cc1 | 7.09%
43 | CN1C(=O)NC(NC(=O)c2ccco2)(C(F)(F)F)C1=O (stereo not shown) | 3.87%
44 | CCCCCN(C(=O)CCC(=O)OC(C)C(=O)c1ccc(Cl)cc1)c1c(N)n(CCCC)c(=O)[nH]c1=O (stereo not shown) | 15%

Row | SMILES | hERG current change (%, negative = inhibition) at 1uM
45 | Cn1c(=O)[nH]c(=O)c2c1nc(CN1CCN(c3ccc(F)cc3)CC1)n2CCc1ccccc1 | 3.89%
46 | Cc1occc1C(=O)N/N=C/C=C/c1ccc(N(C)C)cc1 | -2.85%
47 | CC(C)Cc1csc(NC(=O)c2ccccc2Cl)c1C(=O)O | 3.33%
48 | CC/C(=N\NC(C)=O)c1ccc(OC(F)F)cc1 | 15.2%
49 | COc1ccc(CNc2ccc([N+](=O)[O-])cc2C)cc1 | 8.83%
50 | CC(C)NC(=O)NC(=O)COC(=O)c1ncc(Cl)c(Cl)c1Cl | 16.9%
51 | O=C(CNC1CCCCCC1)Nc1ccccc1N1CCOCC1.O=C(O)C(=O)O | 9.49%
52 | CCOC(=O)CSc1nnc(Cc2ccc(OC)cc2)n1-c1ccccc1 | 9.68%
53 | Clc1ccccc1-c1nnc2sc(-c3ccco3)nn12 | -2.59%
54 | O=C(NCc1ccc2c(c1)OCO2)C1CCC(=O)N1C1CCCC1 (stereo not shown) | 0.703%
55 | CN(C)C(=S)Oc1ccccc1-c1ccccc1OC(=S)N(C)C | 10.2%
56 | COC(=O)c1ccccc1NC(=O)C1COc2ccccc2O1 (stereo not shown) | 6.52%
57 | Cc1ccc(NNC(=O)C2CCC2)cc1C | 4.81%
58 | O=C(O)C1CCN(S(=O)(=O)c2ccc3c(c2)OCCCO3)CC1 | 11.7%
59 | NC(=O)CC[C@@H]1NC(=O)[C@H](CO)NC(=O)c2cc([N+](=O)[O-])cc(I)c2NCC[C@@H](C(N)=O)NC(=O)[C@H](Cc2ccc(O)cc2)NC1=O | 13.5%
60 | CCOC(=O)c1cccc(NC(=O)COc2ccc([N+](=O)[O-])cc2)c1 | -22.7%
61 | Cc1nn(CC(=O)Nc2cc(S(=O)(=O)N3CCOCC3)ccc2Cl)c(C)c1[N+](=O)[O-] | 11.9%
62 | CN(C)S(=O)(=O)N1CCN(C(=O)N2CCCCCC2)CC1 | 4.92%
63 | CCN(CC)S(=O)(=O)c1ccc(F)cc1 | -6.24%
64 | NS(=O)(=O)c1ccc(NC(=S)N2CCN(Cc3ccc4c(c3)OCO4)CC2)cc1 | 7.54%
65 | Cc1ccc(CNC(=O)Cc2csc(Nc3nc(=S)[nH]c4ccccc34)n2)cc1 | 6%
66 | CC1=C(C(=O)OCc2ccc3c(c2)OCO3)C(c2ccccc2)NC(=O)N1 (stereo not shown) | 4.78%

Row | SMILES | hERG current change (%, negative = inhibition) at 1uM
67 | Cc1ccc(S(=O)(=O)N2CCN(C(=O)CC(C)n3cncn3)CC2)cc1 (stereo not shown) | 8.67%
68 | O=C(O)c1ccc(CS(=O)(=O)Cc2ccccc2F)o1 | 12.2%
69 | CN(C(=O)CSc1nnc(Cc2ccccc2F)n1N)C1CCS(=O)(=O)C1 (stereo not shown) | 10.8%
70 | CCOc1ccc(NC(=O)CN2CC(c3ccccc3)CC2=O)cc1 (stereo not shown) | 3.11%
71 | O=C1NN(c2ccccc2)C(=O)/C1=C\c1ccccc1OCC(=O)N1CCOCC1 | 6.5%
72 | COCCNc1nc(N)c([N+](=O)[O-])c(NCC2CCCO2)n1 (stereo not shown) | 11%
73 | O=C1C=C(c2cccc(Cl)c2)C[C@@H](c2ccc3c(c2)OCO3)C1 | 12.3%
74 | Cc1ncc(C[n+]2csc(CCO)c2C)c(N)n1.Cl.[Cl-] | 15.2%
75 | CCOC(=O)CNC(=O)c1cccnc1.Cl | 3.17%
76 | O=C(Cn1cccc1)N1CCc2ccccc21 | 6.21%
77 | C/C(=N\NC(=S)NCc1ccccc1)c1ccc2ccccc2c1OC(F)F | -6.1%
78 | COc1cc(/C=N/NC(=S)NC2CC3CC2C2C=CCC32)ccc1O (stereo not shown) | 10.1%
79 | O=C(CSc1nc2nc(-c3cccs3)cc(C(F)(F)F)c2c(=O)[nH]1)C(F)(F)F | 4%
80 | O=C(COC(=O)c1ccc2ccccc2n1)NC1CCCCC1 | 11.3%
81 | C=CCOC(=O)C1=C(C)Nc2nnnn2C1c1ccc(OC)cc1OC (stereo not shown) | -6.71%
82 | O=S(=O)(Nc1ccc2c(c1)OCCO2)c1c(F)cccc1F | 8.3%
83 | CCC(C)[C@H](NC(=O)C1CC(=O)N(c2ccc3c(c2)OCCO3)C1)C(=O)NC1CCCC1 (stereo partly shown) | 13%
84 | Cc1ccc(N(CC(=O)N/N=C/c2cccs2)S(C)(=O)=O)cc1Cl | 0.412%
85 | COc1ccc(NC(=O)CN(C)S(=O)(=O)c2ccc3c(c2)c(=O)n(C)c(=O)n3C)cc1 | -2.04%
86 | O=C(Nc1nncs1)C1c2ccccc2Oc2ccccc21 | 7.61%
87 | Cc1cccn2c(=O)c(C=O)c(N3CCCCC3)nc12 | 2.05%
88 | O=C(c1cnn2c(C(F)F)cc(-c3ccccc3)nc12)N1CCSCC1 | 6.07%
